Test results published in PubChem BioAssay AID1240 (Sanford-Burnham Center for Chemical Genomics, 2008).
“And” between values parts separate entries of the source, which are not always exact repeats. Identical values can stand only once. The campaign covered roughly 50,000 compounds. About 800 (1.6%) showed an effect of 50% or more. The list shows a part of the results.

What follows are molecules tested against Bcl-2-like protein 10 (Homo sapiens) (UniProt Q9HD36) (assay: TR3 peptide-Bcl-B binding displacers, biochemical primary FP assay, phenotype converters (AID 1240;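 also: 0% = Bcl-B with tracer peptide and DMSO and 100% = tracer peptide lacking Bcl-B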)). Conditions: GST-Bcl-B / FITC-TR3 peptide fluorescence polarization; stronger effect = higher value; compound at 3.75 mg/L.
Sequence of UniProt Q9HD36 (Q9HD36 whole entry, looked up): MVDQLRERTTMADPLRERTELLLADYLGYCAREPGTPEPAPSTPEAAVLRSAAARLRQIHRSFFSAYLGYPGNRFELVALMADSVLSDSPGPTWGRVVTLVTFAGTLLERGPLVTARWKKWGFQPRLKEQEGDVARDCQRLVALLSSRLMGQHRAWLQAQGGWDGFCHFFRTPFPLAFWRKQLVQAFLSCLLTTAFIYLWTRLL

SMILES | displacement
O=C(NCCNc1ccc(Cl)cc1[N+](=O)[O-])c1ccc(Br)o1 | 12.2%
O=[N+]([O-])c1ccc(Nc2nc(NCCN3CCOCC3)nc(Nc3ccc(Cl)cc3)n2)cc1 | 7.2%
COc1ccc(-c2nc(=S)c3c(n2CCO)CCCC3)cc1 | -7.3%
CN(C)/C=C(/Cl)C=C1C(=O)c2ccccc2C1=O | 6.1%
CCOC(=O)c1c(NC(=O)c2ccccc2C)sc(C(=O)Nc2ccccc2F)c1C | -5.2%
C/C(=C\C(=O)c1ccccc1)Nc1ccc(Br)c(C)c1 | -11.6%
CC(C)OC(=O)c1ccc(NC(=O)COc2cc(Cl)ccc2Cl)cc1 | -2.3%
CC(=O)Nc1ccc(S(=O)(=O)Nc2ccc(OCc3ccccc3)cc2)cc1 | 4%
COC(=O)CSc1nc2sc3c(c2c(=O)n1-c1ccccc1)CC(C)CC3 (stereo not given) | -13.4%
COc1ccc(/C=C2\C(=O)NC(=S)N(c3ccc(Br)cc3C)C2=O)c(C)c1 | 7.5%
Cc1cc(=O)[nH]c(SCc2ccccc2)n1 | 12.7%
Cc1ccc(N2NC(=O)/C(=C/c3ccc(N4CCOCC4)cc3)C2=O)cc1 | 0.5%
CCCCN=C1CC(C)(C)C(C(=O)OC)C(O)=C1C(=O)CCC (stereo not given) | 7.2%
O=C(CCCOc1ccc(Cl)cc1Cl)Oc1ccc(Cl)cc1Cl | -8.4%
COc1ccc(C(=O)Nc2ccc(S(=O)(=O)Nc3nccc(C)n3)cc2)cc1[N+](=O)[O-] | 9.5%
N/C(=N\OC(=O)c1ccc(Cl)cc1)c1ccccc1 | -11.5%
CC1=NN(c2ccc(S(N)(=O)=O)cc2)C(=O)/C1=C\c1cccc(Br)c1 | 4.5%
O=C(COc1ccccc1)N1CCN(c2ccccc2)CC1 | 10.6%
CCCCNC(=O)Cn1nc(C(F)(F)F)cc1C | -7.7%
O=C1NN(c2ccccc2)C(=O)/C1=C/c1cccc(OCc2ccc(F)cc2)c1 | 13.1%
Cc1c(N2C(=O)CS/C2=N\N=C\c2ccc(Br)cc2)c(=O)n(-c2ccccc2)n1C | -2.8%
O=C(Nc1ccc(Cc2ccncc2)cc1)c1ccc(-c2cccc(Cl)c2)o1 | 3.8%
O=C1CSC(=Nc2ccc(Br)cc2)N1 | -0.6% and 12.2%
CN1c2ccccc2N(C)C1c1ccc(Br)o1 | -15.3%

SMILES | displacement
O=c1[nH]cc(N=Cc2ccc(Cl)cc2)c(=O)[nH]1 | -10.3%
CC(=O)Oc1ccccc1/C=C1\C=C(c2ccc(C)cc2)OC1=O | -0.2%
COc1ccc(C(NC(C)=O)NC(C)=O)cc1OC | 6.3%
CCOC(=O)c1c(NC(=O)c2ccc(C)o2)sc(C(C)=O)c1C | -5.9%
Cc1ccc(NC(=O)C2C3C4CCC(C4)C23)cc1 (stereo not given) | -12.9%
Cc1ccc2c(c1)c1c3n2CCN(CCC#N)C3CCC1 (stereo not given) | 18.4%
C=CCOc1ccc(C=C2C(=O)NC(=O)NC2=O)cc1OC | 11.5%
COC(=O)c1ccc(C(=O)OC)c(NC(=O)CCN2C(=O)c3ccccc3C2=O)c1 | 0%
Cc1oc(-c2ccccc2)cc1C(=O)Nc1ccc(N(C)C)cc1 | -0.2%
CCCOc1ccc(N2C(=O)CC(NCc3cccnc3)C2=O)cc1 (stereo not given) | 1.7%
CCOc1ccccc1NC(=O)c1c(NC(=O)c2ccccc2Cl)sc2c1CCC(C)C2 (stereo not given) | -11%
CCCOc1ccc(CCC(=O)O)cc1 | 6.3%
Cc1ccc2oc(-c3ccc(C)c(NC(=O)c4ccc(Cl)cc4Cl)c3)nc2c1 | -0.4%
COc1cccc(-c2nc3cc(NC(=O)Cc4ccccc4)ccc3o2)c1 | -8.7%
O=C(O)c1cccc(NC(=O)c2ccc3ccccc3n2)c1 | -1.9%
CC(=O)Oc1ccc2c(c1)oc(=O)c1c3cc(OC(C)=O)c(OC(C)=O)cc3oc21 | 12.7%
COc1ccc(/C=C/C(=O)Nc2ccc(OCc3ccccc3)cc2)cc1 | -2.2%
O=[N+]([O-])c1ccc(-c2noc(-c3ccccc3Br)n2)cc1 | 4.3%
CC(C)Oc1ncnc2sc3c(c12)CCCC3 | -2.4%
CC(=O)Nc1cccc(Oc2ccc3c(c2)C(=O)N(c2ccccc2)C3=O)c1 | 2.4%
COc1ccc(N2C(=O)/C(=C/c3cc(C)n(-c4ccccc4)c3C)C(=O)NC2=S)cc1 | 7%
CC(=O)Nc1c(-c2ccccc2)c(C)nn1Cc1ccccc1 | -13.6%
CC1=C(C(=O)OCc2ccccc2)C(c2ccccn2)C2=C(CCCC2=O)N1 (stereo not given) | -2.3%
N#Cc1c(-c2cccc(Br)c2)cc(C2CC2)nc1N | 2.3%

SMILES | displacement
COc1cc(/C=C2\C(=O)NC(=O)N(c3ccc(F)cc3)C2=O)ccc1OCc1cccc(F)c1 | -10.4%
COc1ccc(C(NS(=O)(=O)c2ccc(C)c([N+](=O)[O-])c2)c2ccccc2)cc1 (stereo not given) | -8.1%
Oc1ccc(/C=N/Nc2cc(N3CCCC3)nc(N3CCCC3)n2)cc1 | 12%
CCCSc1nsc(SCCC)c1C(N)=O | -7.4%
COc1ccccc1Nc1ncnc2ccc(C)cc12 | 12%
CCOC(=O)c1sc(NC(=O)CN2CCCCC2)c(C(=O)OCC)c1C | 1.2%
COC(=O)c1ccccc1NC(=S)NC(=O)c1ccco1 | 11.2%
O=C(Nc1nc(-c2ccc(Cl)cc2)cs1)C12CC3CC(CC(C3)C1)C2 | -5.9%
C/C(=N\OCc1nc2c3c4c(sc3ncn2n1)CCCC4)c1ccc(Br)cc1 | -8%
Cc1nnc(NC(=O)Nc2ccc(Cl)c(Cl)c2)s1 | 16.6%
CC1(C)CC(=O)C2=C(C1)OC1=C(C(=O)CC(C)(C)C1)C2c1cccc([N+](=O)[O-])c1 | 2%
CC(=O)OC1CCC2(C)C(=CCC3C2CCC2(C)C3CC3CC=CCC32C(C)=O)C1 (stereo not given) | -9%
COc1ccc(C2CC(=O)C3=C(C2)Nc2ccccc2NC3c2ccc(OC(C)=O)cc2)cc1 (stereo not given) | 5.9%
CCc1c(C)c2ccc(OC(C)=O)c(C)c2oc1=O | 9.1%
CC(C)CNC(=O)C(=O)Nc1cccc(Br)c1 | 32.6%
O=C(Nc1ccc([N+](=O)[O-])c(NC(=O)c2ccccc2F)c1)c1ccccc1F | 7.9%
O=C(CSc1cc(Cl)ccc1Cl)Nc1cccc(Br)c1 | 11.5%
O=C(/C=C/c1cccc(C(F)(F)F)c1)Nc1cccc(Br)c1 | 9.7%
CCc1ccc(NC(=O)c2cncc(Br)c2)cc1 | 15%
O=C(O)CCCCCN1C(=O)C(=O)/C(=C(/O)c2ccc(F)cc2)C1c1cccc([N+](=O)[O-])c1 (stereo not given) | -1%
COC(=O)c1c(NC(=O)COc2ccc(C)cc2Br)sc2c1C(C(=O)OC)CC2 (stereo not given) | 15.7%
O=C(Nc1ccc(S(=O)(=O)N2CCCCC2)cc1)c1ccco1 | -3%
